Measured values as given in PubChem BioAssay AID588591 (National Center for Advancing Translational Sciences (NCATS), 2011).
About 4,700 (1.2%) of roughly 390,000 compounds were called active. The shares of active, inactive and inconclusive entries below differ from those in the screen. Calls come from the whole dose curve; as a rule, active = well fitted inhibition curve with a large enough effect; inconclusive = small, poorly fitted or top-dose-only effect, or another doubt; inactive = no such curve, though single readings can be large or run the other way. Potencies of inconclusive entries are doubtful fits and often do not repeat.

biological target: DNA polymerase eta (Homo sapiens) (UniProt Q9Y253); assay: qHTS for Inhibitors of Polymerase Eta; settings: recombinant Pol eta, fluorescent DNA replication assay; series mostly up to 114 µM
Sequence of UniProt Q9Y253 (Q9Y253 whole entry, looked up): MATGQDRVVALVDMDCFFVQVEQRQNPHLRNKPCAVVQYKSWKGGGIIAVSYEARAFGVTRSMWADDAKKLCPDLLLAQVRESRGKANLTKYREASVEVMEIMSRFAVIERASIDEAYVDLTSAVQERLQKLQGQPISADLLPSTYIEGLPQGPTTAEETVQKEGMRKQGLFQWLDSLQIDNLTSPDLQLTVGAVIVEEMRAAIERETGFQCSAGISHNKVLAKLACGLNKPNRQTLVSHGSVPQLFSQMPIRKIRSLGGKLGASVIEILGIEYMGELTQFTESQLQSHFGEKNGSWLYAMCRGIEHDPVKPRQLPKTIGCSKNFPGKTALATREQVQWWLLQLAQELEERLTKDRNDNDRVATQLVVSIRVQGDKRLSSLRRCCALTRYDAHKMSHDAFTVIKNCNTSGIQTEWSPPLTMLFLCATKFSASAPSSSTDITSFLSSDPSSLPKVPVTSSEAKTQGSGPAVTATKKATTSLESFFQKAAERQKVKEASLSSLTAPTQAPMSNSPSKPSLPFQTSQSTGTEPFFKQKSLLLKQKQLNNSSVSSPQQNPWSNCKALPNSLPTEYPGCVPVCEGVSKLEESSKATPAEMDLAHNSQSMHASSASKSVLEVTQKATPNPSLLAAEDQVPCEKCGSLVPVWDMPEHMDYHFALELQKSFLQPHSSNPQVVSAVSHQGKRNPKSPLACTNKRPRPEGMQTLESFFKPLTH
Outline: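 Pol eta at 10 nM preincubated with compounds 15 min at room temperature; reaction started with fluorescent substrate (50 nM final) and read kinetically at 0 and 10 min.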
Potency is the fitted concentration of half-maximal effect; tags give direction and shape of the fitted curve.

**Q.** Which Potency does the source give for `CN(c1ccc(-c2csc(NC(=O)C3CC(=O)N(Cc4ccco4)C3)n2)cc1)S(C)(=O)=O` (configuration not stated) here?
**A.** active: 50.1 µM

**Q.** For `N#CCC(=O)Nc1ccc(C(=O)OCC(=O)Nc2sc3c(c2C#N)CCCC3)cc1`, which Potency is on record?
**A.** inconclusive: 15.8 µM [inhibitor, single point]

**Q.** With `O=C(CSc1nc2cc(C(F)(F)F)ccc2n1Cc1ccccc1)NC1CCS(=O)(=O)C1` (configuration not stated) as the compound, how does the Potency read?
**A.** inactive

**Q.** Which Potency does the source give for `Nc1c(S(=O)(=O)O)cc(NC(=O)c2ccccc2)c2c1C(=O)c1ccccc1C2=O` here?
**A.** active: 17.8 µM

**Q.** For `O=C(O)c1ccc(CSc2nc3ccc(NC(=O)c4ccccc4C(=O)O)cc3s2)cc1`, which Potency is on record?
**A.** active: 25.1 µM

**Q.** How did the Potency turn out when `CCOc1ccc2oc(C(=O)N3CCN(c4ccccc4OCC)CC3)c(C)c2c1` was run?
**A.** inconclusive: 28.2 µM [inhibitor, single point]

**Q.** Which Potency does the source give for `CCn1c(=O)c2c3c(sc2n2cnnc12)CCC3` here?
**A.** inconclusive: 28.2 µM [inhibitor, single point]

**Q.** For `CN1CCN(c2ccc(S(=O)(=O)N3CCCCC3)cc2NC(=O)Cc2ccc(Cl)cc2)CC1`, which Potency is on record?
**A.** inconclusive: 100 µM [inhibitor, partial curve, poor fit]

**Q.** `Cc1oc(-c2ccccc2)nc1C(=O)Nc1nccs1` was tested. Which Potency did it give?
**A.** inconclusive: 31.6 µM [inhibitor, partial curve]

**Q.** For `Cn1c(=O)[nH]c(=O)c2c1nc(N1CCOCC1)n2Cc1ccccc1`, which Potency is on record?
**A.** inactive

**Q.** With `CCC(C(=O)Nc1nnc(-c2ccco2)s1)c1ccccc1` (configuration not stated) as the compound, how does the Potency read?
**A.** inconclusive: 35.5 µM [inhibitor, partial curve, poor fit]

**Q.** For `CC(NC(=O)c1ccccc1NC(=O)CSc1nnnn1C)c1ccccc1` (configuration not stated), which Potency is on record?
**A.** inactive

**Q.** How did the Potency turn out when `O=C1CCCC2=C1C(c1ccncc1)c1c(nc(SCc3ccccc3Cl)[nH]c1=O)N2` (configuration not stated) was run?
**A.** inconclusive: 28.2 µM [inhibitor, single point]

**Q.** Which Potency does the source give for `O=C(O)c1cc(/C=C/c2ccc(N3CCOCC3)c([N+](=O)[O-])c2)nc2ccccc12` here?
**A.** inconclusive: 39.8 µM [inhibitor, partial curve]

**Q.** `COc1ccc(N2CC(C(=O)Nc3nnc(SCC(=O)NCC4CCCO4)s3)CC2=O)cc1` (configuration not stated) was tested. Which Potency did it give?
**A.** inconclusive: 17.8 µM [inhibitor, full curve, poor fit]

**Q.** For `O=C(c1cc2nc(-c3ccccc3)cc(-c3ccccc3)n2n1)N1CCN(C(=O)c2ccco2)CC1`, which Potency is on record?
**A.** inconclusive: 28.2 µM [inhibitor, partial curve]

**Q.** Which Potency does the source give for `c1ccc2c(c1)COC(CNC1CCCCC1)OC2` here?
**A.** inactive

**Q.** With `O=S(=O)(NCC(c1ccc2c(c1)OCO2)N1CCOCC1)c1ccc(Br)cc1` (configuration not stated) as the compound, how does the Potency read?
**A.** inactive

**Q.** `CN(C)c1ccc(C=C2SC(=S)N(Cc3ccco3)C2=O)cc1` was tested. Which Potency did it give?
**A.** inconclusive: 39.8 µM [inhibitor, partial curve]

**Q.** `COc1ccccc1NC(=O)Cn1cc(S(=O)(=O)Cc2ccccc2)c2ccccc21` was tested. Which Potency did it give?
**A.** active: 79.4 µM

**Q.** How did the Potency turn out when `COc1ccc2nc(C)cc(SCC(=O)N/N=C/c3c(OC)ccc4ccccc34)c2c1` was run?
**A.** inconclusive: 3.55 µM [inhibitor, full curve]

**Q.** For `O=C(CCN1C(=O)/C(=C/c2ccc(F)cc2)SC1=S)NCCc1cnc[nH]1`, which Potency is on record?
**A.** inconclusive: 89.1 µM [inhibitor, partial curve, poor fit]

**Q.** With `O=C(/C=C/c1ccco1)Nc1ccccc1N1CCOCC1` as the compound, how does the Potency read?
**A.** inconclusive: 3.98 µM [inhibitor, full curve, poor fit]

**Q.** `Cc1ccc(OCC(=O)c2ccc(Cl)s2)c([N+](=O)[O-])n1` was tested. Which Potency did it give?
**A.** inconclusive: 79.4 µM [inhibitor, partial curve]

**Q.** `OCCN1CCN(c2ncnc3sc(-c4ccccc4)cc23)CC1` was tested. Which Potency did it give?
**A.** inconclusive: 50.1 µM [inhibitor, partial curve, poor fit]

**Q.** `CC(C)n1c(=O)[nH][nH]c1=S` was tested. Which Potency did it give?
**A.** inactive

**Q.** Which Potency does the source give for `Cc1nn2c3cc(N4CCOCC4)ccc3nc2c2ccccc12` here?
**A.** inconclusive: 20 µM [inhibitor, single point]

**Q.** With `Cc1ccc(CNC(=O)C23CN(Cc4ccccc4)CC2C(c2ccc([N+](=O)[O-])cc2)=NO3)o1` (configuration not stated) as the compound, how does the Potency read?
**A.** inconclusive: 112 µM [inhibitor, partial curve, poor fit]

**Q.** `COCCN(C(=O)Cn1c(C(F)(F)F)nc2ccccc21)c1c(N)n(Cc2ccccc2)c(=O)[nH]c1=O` was tested. Which Potency did it give?
**A.** inconclusive: 79.4 µM [inhibitor, partial curve, poor fit]

**Q.** For `O=C(CN1CCC(NC(=O)c2ccccc2F)CC1)Nc1ccc2c(c1)OCCO2`, which Potency is on record?
**A.** inactive

**Q.** `CCOC(=O)N/N=C/c1c(C)nn(-c2cccc(C(F)(F)F)c2)c1Cl` was tested. Which Potency did it give?
**A.** inconclusive: 70.8 µM [inhibitor, partial curve, poor fit]

**Q.** How did the Potency turn out when `O=C(O)C1C2C=CC(C2)C1C(=O)Nc1cccc(Cl)c1` (configuration not stated) was run?
**A.** inconclusive: 44.7 µM [inhibitor, partial curve]

**Q.** With `CC(=O)NC12CC3CC(C1)CC(C(=O)Nc1cccc(S(=O)(=O)N4CCCCCC4)c1)(C3)C2` as the compound, how does the Potency read?
**A.** inconclusive: 0.631 µM [inhibitor, full curve, poor fit]

**Q.** `C/C(N)=C(/C#N)C(=O)CSc1ncnc2ccccc12` was tested. Which Potency did it give?
**A.** inconclusive: 28.2 µM [inhibitor, partial curve, poor fit]

**Q.** With `COc1ccccc1C(=O)CN1C(=O)NC2(CCc3ccccc32)C1=O` (configuration not stated) as the compound, how does the Potency read?
**A.** inactive

**Q.** Which Potency does the source give for `CC1Cc2ccccc2N1Cc1nc2cc(Cl)ccc2c(=O)[nH]1` (configuration not stated) here?
**A.** inconclusive: 3.55 µM [inhibitor, partial curve, poor fit]

**Q.** With `O=C(COC(=O)c1c2c(nc3ccccc13)CCN(Cc1ccccc1)C2)Nc1c(F)cccc1F` as the compound, how does the Potency read?
**A.** inconclusive: 44.7 µM [inhibitor, partial curve, poor fit]

**Q.** Which Potency does the source give for `CCc1ccccc1NC(=O)CSc1nncn2c1cc1oc(C)cc12` here?
**A.** inactive

**Q.** How did the Potency turn out when `Nc1c(Cl)cc(S(N)(=O)=O)cc1S(N)(=O)=O` was run?
**A.** inconclusive: 39.8 µM [inhibitor, single point]

**Q.** With `CS(=O)(=O)Nc1ccc(C2=NN(C(=O)c3ccco3)C(c3ccc(F)cc3)C2)cc1` (configuration not stated) as the compound, how does the Potency read?
**A.** inactive

**Q.** Which Potency does the source give for `CC(C)(C)c1ccc(C(=O)N/C(=C\c2ccco2)C(=O)Nc2ccccc2C(=O)O)cc1` here?
**A.** active: 35.5 µM

**Q.** How did the Potency turn out when `CCCCCCC(=O)N=Nc1c(O)[nH]c2ccc([N+](=O)[O-])cc12` was run?
**A.** inconclusive: 10 µM [inhibitor, full curve, poor fit]
